This is an account of results in the RNAGym collection of RNA variant scans (doi:10.1073/pnas.2313332121).

Variants at the background level are over-represented here.

Sequences and labels used below:
B1: TPR 5TU (parent)
chain: GGAUCUUCUCGAUCUAACAAAAAAGACAAAUCUGCCACAAAGCUUGAGAGCAUCUUCGGAUGCAGAGGCGGCAGCCUUCGGUGGCGCGAUAGCGCCAACGUUCUCAACUAUGACACGCAAAACGCGUGCUCCGUUGAAUGGAGUUUAUCAUG

In this data set the parent is B1. Nature of the data set: polymerase ribozyme fitness, log enrichment relative to wild type (log ratio); higher = more active; in vitro selection for triplet polymerase activity. The essentials: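 PCR was used to build mutant libraries for each subunit of a heterodimeric triplet polymerase ribozyme, which were then transcribed. A single in vitro selection round, in triplicate, used a frozen incubation at −7 °C and recovered extended constructs by gel excision, streptavidin beads and RT-PCR. Fitness is the logarithm of genotype enrichment relative to wild-type enrichment, averaged over replicates with inverse-variance weights. The logarithm is base 2, and after Illumina sequencing only genotypes with ≥10 input reads and ≥1 read per output were kept.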
For the variant C14U A24U G25U G34C C35A G143A U145G, the “polymerase ribozyme fitness (log ratio)” value is at most -4.2.
With C14U A30U C38G A49G the figure was at most -4.2.
With C14U A29U U53G G92A U134G the figure was at most -4.2; with C14U G50A C72A U90A G117U, at most -4.2; with C14U A19C U53C C69U C72U G83A C85U, at most -4.2.
The figure for C14G G88U U102A is at most -4.2; for C14U C72A G136A it is at most -4.2; for C14U A52G A64U G74A C131U A142U G152C it is at most -4.2.
Turning to C14U G25U U90G, the “polymerase ribozyme fitness (log ratio)” value is at most -4.2.
Regarding C14G C93U U135A, the “polymerase ribozyme fitness (log ratio)” value was at most -4.2.
The figure for C14U A22U A73G A137U is at most -4.2; for C14G G25U C79U U134G U146G C149U it is at most -4.2.
With C14G U53C C75U G94U C149U the figure was at most -4.2.
The figure for C14U A64G is -4.17; for C14U A22U C79U G88A C96A C125A G141U it is at most -4.2.
C14G G88A U127C: the “polymerase ribozyme fitness (log ratio)” value is at most -4.2.
With C14U G140A the figure was at most -4.2; with C14G U56A A73G U135C, -4.12.
With C14U A24U U55A G70C G94A C116G the figure was at most -4.2; with C14U C35A C69G C85A C99G A122U C125A U146A U148A, at most -4.2.
With C14U A23G C69G G80U C103G the figure was at most -4.2; with C14G U53A G81A U130G, at most -4.2; with C14G G81A C87U A106C G140U, at most -4.2.
Regarding C14U G42C A52C G84A C85A A115C, the “polymerase ribozyme fitness (log ratio)” value is at most -4.2.
Turning to C14U G59U, the “polymerase ribozyme fitness (log ratio)” value was -1.23.
With C14G G48C C75U G81A G84U A97U G141U A150U the figure was at most -4.2; with C14U A17U A24C U31C C32G U44G A47G C93U, at most -4.2; with C14U A91C G117C U146G, at most -4.2.
On to C14U C43U U55G C87U C108A G133C, for which the “polymerase ribozyme fitness (log ratio)” value was at most -4.2.
As to C14G U56C U139A, the “polymerase ribozyme fitness (log ratio)” value is at most -4.2.
With C14U A19U A24C C93G U101G U144A U151G, the “polymerase ribozyme fitness (log ratio)” value is at most -4.2.
Take C14U A30U G133C: the “polymerase ribozyme fitness (log ratio)” value was at most -4.2.
The figure for C14G U55A G92U is -2.92.
With C14U A28C A30U A73G G88A C129A the figure was at most -4.2.
In the case of C14U G25C C38G G67A C69A C96U A121G A147C, the “polymerase ribozyme fitness (log ratio)” value was at most -4.2.
With C14G U53G C95A A119C U145G the figure was at most -4.2.
With C14G G70A G86A U90G C93G A110U C114U U134A the figure was at most -4.2; with C14U A28C A30G U53A C85G G136A, at most -4.2; with C14G U61A G81A C85A C99U, at most -4.2.
The figure for C14U A24U C38U A49C U55G U78G C108U U148A is at most -4.2.
Consider C14U C35G C75U C76G C95U, for which the “polymerase ribozyme fitness (log ratio)” value is -3.81.
In the case of C14G U82A U101G, the “polymerase ribozyme fitness (log ratio)” value was -2.29.
For the variant C14G U45C A49C G74U G83C, the “polymerase ribozyme fitness (log ratio)” value is at most -4.2.
C14U A17C C57A G59C G83C A107U: the “polymerase ribozyme fitness (log ratio)” value was at most -4.2.
The figure for C14U G50U C87U U127G is at most -4.2.
With C14U A29C A47U A52G C72G A113C A115U the figure was at most -4.2; with C14U A22C C132U U151G, at most -4.2; with C14G G42U G46C G92C A119U G128A, at most -4.2.
With C14G G48A G58C the figure was at most -4.2; with C14G U44G C79G C85A C87A U146G, at most -4.2; with C14G U31A A40U U90G G92A A107G G112A G133U G141A, at most -4.2.
In the case of C14G G65U G133C G141U, the “polymerase ribozyme fitness (log ratio)” value was at most -4.2.
With C14U G74C A107G the figure was at most -4.2; with C14U A41C G50U A52C G84A U90G A91C C116U G140A, at most -4.2; with C14G U33A G48A U82C C85G C149G, at most -4.2.
With C14G G74C U77G A142G the figure was at most -4.2.
The figure for C14U C35A A60C C116G G136C is at most -4.2; for C14G U44A G59U C75U A91G G133C it is at most -4.2.
In the case of C14G G25C A49C G62C A97G C105A G128A, the “polymerase ribozyme fitness (log ratio)” value was at most -4.2.
The figure for C14G G141A is -1.87; for C14U G25C C43G G48U U55G U56A G86U C87A A107U it is at most -4.2.
With C14U C35U C38U C96A C123A U134G the figure was at most -4.2; with C14U G46C G50C C108G A113U A120U U127G U145G, at most -4.2; with C14U U15A C93U U101A, -2.56.
The figure for C14U A41U A60C A66U G80A C85U C103U is at most -4.2; for C14U A19G G94A A106G C131G it is at most -4.2; for C14U A21G C38G C57A C79U A138C U148C it is at most -4.2.
For the variant C14U A21C G67U U77A C85G C96U U127G, the “polymerase ribozyme fitness (log ratio)” value is at most -4.2.
The figure for C14U U15C A24C A29G U55G U56C C87A A115G G136U is at most -4.2; for C14G G25C it is at most -4.2; for C14U A30C C32U C87U U151G it is at most -4.2.
The figure for C14G G80C C131G is at most -4.2; for C14U A21C G67U U77A C85G C96U G152A it is at most -4.2; for C14U G50U A91U C95G C99U A110G G117A it is at most -4.2.
With C14U G50A C79A C85A A97U G141U the figure was at most -4.2; with C14U G71A C95U, at most -4.2; with C14G U15G G46A A49G G84U A106G, at most -4.2.
For the variant C14U A28U A110G, the “polymerase ribozyme fitness (log ratio)” value is at most -4.2.
The figure for C14U G48U A52U A138C A142C U148G is at most -4.2.
As for C14U A49U U56A U144G U148G, the “polymerase ribozyme fitness (log ratio)” value was at most -4.2.
With C14G G25A U55A U127C the figure was at most -4.2; with C14U A20U C51U C75G C118G, at most -4.2.
Regarding C14U G88A, the “polymerase ribozyme fitness (log ratio)” value was -4.2.
